# Laboratory results: PubChem BioAssay AID1240 (Sanford-Burnham Center for Chemical Genomics, 2008)
# Out of some 50,000 compounds screened, about 800 (1.6%) showed an effect of 50% or more. The list shows a part of the results.
# Biological target: Bcl-2-like protein 10 (Homo sapiens) (UniProt Q9HD36)
# Experiment: TR3 peptide-Bcl-B binding displacers, biochemical primary FP assay, phenotype converters (AID 1240);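 also: 0% = Bcl-B with tracer peptide and DMSO and 100% = tracer peptide lacking Bcl-B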
# Conditions: GST-Bcl-B / FITC-TR3 peptide fluorescence polarization; stronger effect = higher value; compound at 3.75 mg/L
# Chain of UniProt Q9HD36 (Q9HD36 whole entry, looked up): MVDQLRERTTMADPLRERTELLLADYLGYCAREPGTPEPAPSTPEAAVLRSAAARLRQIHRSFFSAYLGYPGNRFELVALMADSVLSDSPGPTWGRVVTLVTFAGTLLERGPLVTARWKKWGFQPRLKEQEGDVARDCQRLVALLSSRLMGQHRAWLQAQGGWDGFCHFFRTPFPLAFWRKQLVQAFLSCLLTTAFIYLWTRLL
row,Compound,displacement [%]
1,CCOC(=O)CNC1=C([N+](=O)[O-])C(=O)CC(C)(C)C1,-9.2
2,COc1cc(C2C3=C(CC(C)(C)CC3=O)OC3=C2C(=O)CC(C)(C)C3)cc(I)c1O,9.5
3,CCn1c2ccccc2c2cc(CN3CCN(S(=O)(=O)c4ccccc4)CC3)ccc21,-4.6
4,CC(Oc1cccc(Cl)c1)C(=O)Nc1ccccc1C(=O)N1CCN(Cc2ccccc2)CC1 (stereo unspecified),16
5,Cc1cc(NS(=O)(=O)c2ccccc2[N+](=O)[O-])no1,0.5
6,C1CCN(c2nc3nonc3nc2N2CCCCC2)CC1,5.8
7,COc1ccccc1NC(=O)C1=C(C)NC(=S)NC1c1cccc([N+](=O)[O-])c1 (stereo unspecified),-13.4
8,Cc1ccc(-c2c(C#N)c(N)nc3c2CCCCC3)s1,-0.7
9,COC(=O)CN1C(=O)/C(=C\c2ccc(Br)cc2)SC1=S,10.1
10,CCN(CC)CCOc1nnc(-c2ccc(OC)cc2)c2ccccc12,3.5
11,Cc1ccc2nc(NC(=O)CCc3ccccc3)sc2c1,-4.9
12,Cc1ccc(-c2cc(C(F)(F)F)n3ncc(C(=O)O)c3n2)cc1,-1
13,Cc1ccc(-n2[nH]c(C)c(C=NCc3ccncc3)c2=O)cc1,-13.8
14,CC(C)COc1cc(=O)[nH]c(SCC(C)C)n1,-4.9
15,CCC1=NN(C(=O)c2ccccc2O)C(O)(c2ccncc2)C1 (stereo unspecified),-10.8
16,CC1=CC(C)C2(COC(c3ccc[n+](C)c3)OC2)C(C)C1 (stereo unspecified),-14.6
17,OCC#CC(O)(c1ccc(F)cc1)c1ccc(F)cc1,2.4
18,Clc1cccc(OCCCCn2ccnc2)c1,4.2
19,CCCCS(=O)CC(O)COc1ccccc1 (stereo unspecified),-10.7
20,CCN(CC)CCN1C(=O)c2ccccc2NC1c1ccccc1F (stereo unspecified),10.1
21,O=C(COc1ccc2ccccc2c1)Nc1ccc(S(=O)(=O)N2CCCCCC2)cc1,-0.6
22,Cc1ccc(C(=O)N/C(=C/c2ccc(Br)cc2)C(=O)NN)cc1,-31.6
23,COc1ccc(N2C(=O)CC(N3CCN(C(c4ccc(F)cc4)c4ccc(F)cc4)CC3)C2=O)cc1 (stereo unspecified),-9.2

row,Compound,displacement [%]
1,CS(=O)(=O)N1CCN(c2ccc([N+](=O)[O-])cc2Cl)CC1,1.2
2,COc1ccc(COC(=O)C2=C(C)NC(=O)NC2c2ccc(O)cc2)cc1 (stereo unspecified),-3.4
3,O=C(/C=C/c1ccccc1)Nc1nnc(C2CCCC2)s1,13.5
4,COC(=O)C1=C(C)N(C)C(C)=C(C(=O)OC)C1c1cccc(C)c1,-7.2
5,CCCC1CCc2nc3ccccc3c(C(=O)O)c2C1 (stereo unspecified),-10.4
6,CSc1ccc(/C=C(\NC(=O)c2ccc(C)cc2)C(=O)Nc2cccc(C)c2)cc1,-2.7
7,COc1cccc(/C=N/NC(=O)CCNc2n[nH]c(=O)[nH]c2=O)c1OC,-9.5
8,CC(=O)Nc1ccc(NC(=O)c2c(Cl)cccc2Cl)cc1,-2.3
9,CCOC(=O)CSc1nc2c(c(=O)n1C1CCOC(C)(C)C1)C1(CCCCC1)Cc1ccccc1-2 (stereo unspecified),-1.1
10,CC(C)CCNC(=O)C(=O)NCc1ccc(Cl)cc1,1.4
11,Cc1ccc(C2C(C#N)=C(N)Oc3c2ccc2cccnc32)cc1 (stereo unspecified),-16.1
12,COc1ccc(OC)c(/C=C2\SC(=N)N(c3ccc(F)cc3)C2=O)c1,-4.7
13,O=C(Cc1n[nH]c(=O)c2ccccc12)NCCCN1CCCCCC1,-1.7
14,COc1ccccc1NC(=O)/C(=C\c1ccc(Br)cc1)NC(=O)c1ccccc1OC,-4
15,Cc1sc(NC(=O)c2sc3ccccc3c2Cl)c(C#N)c1C,1
16,COc1ccc(OC)c(NC(=S)NC(NC(=O)Cc2cccc3ccccc23)C(Cl)(Cl)Cl)c1 (stereo unspecified),12.7
17,CC(C)Oc1ccc(/C=N/N=C/c2ccc(OC(C)C)cc2)cc1,3.1
18,COc1ccc(C(=O)Nc2ccc3c4c(cccc24)CC3)cc1Br,-4.5
19,COc1ccccc1N1CCN(/N=C\c2ccncc2)CC1,-10.3
20,Oc1c(Br)cc(Cl)cc1C=Nc1cccc2nsnc12,10.5
21,Cc1cc(OCC(=O)NNC(=O)c2ccccc2C)ccc1Br,-12.6
22,O=[N+]([O-])c1ccc(NCCCNS(=O)(=O)c2ccccc2)c(Cl)c1,-6.2
23,COc1ccccc1CNC1C2CC3CC(C2)CC1C3 (stereo unspecified),4.8

row,Compound,displacement [%]
1,CC1=C(C(=O)OC(C)C)C(c2ccc(Br)cc2)C2=C(CCCC2=O)N1 (stereo unspecified),6.3
2,Cc1ccc(-c2ccccc2)n1-c1cccc(C(=O)O)c1,1.2
3,COc1ccccc1NC(=O)CN(c1cccc([N+](=O)[O-])c1)S(=O)(=O)c1ccccc1,8.5
4,CN(c1ccc(C(=O)Nc2ccc3ccccc3c2)cc1)S(=O)(=O)c1ccccc1,9.8
5,Cc1cccc(NC(=O)C(=O)NCCCOC(C)C)c1,13.1
6,COc1ccc2c(c1OC)C(=O)N(c1cccc(C)c1)C2=O,-14.8
7,CC(=O)NC1=NC(=O)/C(=C\c2ccc(N(C)C)c(Br)c2)S1,-39.2
8,CC(Oc1ccccc1)C(=O)N1CCN(c2ccccc2)CC1 (stereo unspecified),21.2
9,O=C(CSc1nnc(-c2ccccc2)c(-c2ccccc2)n1)N1CCCCC1,-4.4
10,CCOc1ccc(-n2c(-c3ccccc3)nc3c(cnn3-c3ccccc3)c2=O)cc1,8.6
11,COc1ccc(/C=C/C(=O)Nc2cccc([N+](=O)[O-])c2)cc1Br,6.1
12,COc1cc(C(=O)Nc2ccc(Cl)cn2)cc(OC)c1OC,10.7
13,COc1cccc(N(CC(=O)Nc2ccccc2Br)S(=O)(=O)c2ccccc2)c1,4.6
14,CC(C)(C)C1CCc2c(sc3nc(SCC(N)=O)nc(N)c23)C1 (stereo unspecified),3.5
15,COc1ccc(OC)c(NC(=S)NC(NC(=O)c2ccc(Cl)cc2Cl)C(Cl)(Cl)Cl)c1 (stereo unspecified),-4.5
16,COc1ccc(C(N)=O)cc1NC(=O)c1cccnc1,14.4
17,Clc1ccc(-n2ncnc2-c2ccc(Cl)cc2Cl)cc1,8.9
18,CC(C)(C)c1ccc2c(c1)C(=O)NC2=O,-4.8
19,CCOC(=O)c1cc(CC)sc1NC(=O)c1cc([N+](=O)[O-])ccc1N1CCN(CC)CC1,-2.3
20,CC12c3ccccc3C(C)(c3ccccc31)C1C(=O)N(c3cccc(C(=O)O)c3)C(=O)C12 (stereo unspecified),12.4
21,COCCOC(=O)c1ccc(NC(=O)COc2cccc(C)c2C)cc1,1.9
22,Cc1ccnc(NS(=O)(=O)c2ccc(N3C(=O)c4ccc(C(=O)O)cc4C3=O)cc2)n1,1.4
23,CC(=O)Nc1c2ccc([N+](=O)[O-])cc2n2c(C)nc3ccc(Cl)cc3c12,1.9

row,Compound,displacement [%]
1,C/C(=N\NS(=O)(=O)c1ccc(C)cc1)c1cccs1,4.9
2,Nc1ccccc1C(=O)N=Nc1c(O)[nH]c2ccccc12,4.4
3,CCN(CC)CCOC(=O)c1ccc(O)c(OC)c1,3.8
4,O=S(=O)(c1ccccc1)N1CCN(Cc2ccccc2C(F)(F)F)CC1,-1.5
5,Cc1ccc(N2C(=O)NC(=O)/C(=C\c3ccc(Br)s3)C2=O)cc1,-33.3
6,COc1ccc(-c2occ(C(=O)O)c2C(=O)O)cc1,0.2
7,CCc1ccc(C2C(C(=O)OC)=C(C)NC3=C2C(=O)CC(C)(C)C3)s1 (stereo unspecified),5.2
8,C=CCN1C(=O)/C(=C\c2ccc(OS(=O)(=O)c3ccccc3)c(OC)c2)SC1=S,3.5
9,COc1ccc(C(=O)CSc2nc3c(c(-c4ccc(C)o4)c2C#N)CCCC3)cc1,7.6
10,CCSCCOC(=O)C1=C(C)NC2=C(C(=O)CCC2)C1c1ccccc1OC(C)C (stereo unspecified),2.9
11,O=C(N=Nc1c(O)n(CN2CCCC2)c2ccccc12)c1ccccc1Br,-6.3
12,CNC(=O)CN(c1ccc(OC)cc1)S(=O)(=O)c1ccc(C)cc1,7.8
13,O=C1N=c2ccc(Br)cc2=C1c1sc(=O)n(-c2cccc(Cl)c2)c1S,2.1
14,O=C1C2ON(c3ccccc3)C(c3ccco3)C2C(=O)N1c1ccc(N2CCOCC2)cc1 (stereo unspecified),2.3
15,O=C(Nc1ccc(NC(=O)c2ccc(-c3cccc(Cl)c3)o2)cc1)c1ccco1,12.1
16,CCN1C(=O)/C(=C\c2cc(Cl)c(OCc3ccccc3)c(OC)c2)SC1=S,7.3
17,CC(=O)N1N=C(c2ccc(Br)cc2)CC1c1cccc([N+](=O)[O-])c1 (stereo unspecified),9.1
18,O=C(N/N=C/c1ccccc1O)c1cc(C2CC2)[nH]n1,-21.2
19,Cc1nc(C)c(C(=O)NNC(=O)c2cccc([N+](=O)[O-])c2C(=O)O)s1,10
20,COC(=O)c1ccc(NC(=O)c2cncc(Br)c2)cc1,11.1
21,COc1ccc(C(=O)CC2(O)C(=O)Nc3ccc(Br)cc32)cc1 (stereo unspecified),2.7
22,NC(=O)c1ccc(NC(=S)Nc2ccc(F)cc2)cc1,-8.2
23,Cc1ccc(OCCOc2cccc(C=O)c2)cc1,1.6

row,Compound,displacement [%]
1,CC1(C)Cc2[nH]c(=O)c(C#N)cc2CO1,2.2
2,Cc1cccc(OCC(=O)Nc2cc([N+](=O)[O-])ccc2Cl)c1,4.8
3,Fc1ccccc1Cn1nnc(-c2ccccc2Cl)n1,-12.5
4,Cc1cccn(C(=O)c2ccc3c(c2)OCO3)c1=NC(=O)c1ccc2c(c1)OCO2,-12
5,Cc1ccc(N(CN2C(=O)c3ccccc3C2=O)C(=O)c2ccccc2)cc1,-3.9
6,CCOC(=O)Nc1cccc(Nc2ccccc2)c1,-0.4
7,CCOC(=O)C(CC)C(C)=NNC(=O)c1ccc([N+](=O)[O-])cc1 (stereo unspecified),4.5
8,CCC(O)(C#CCN1CCCCC1)CC,-5.3
9,Cc1[nH]c2ccccc2c1C=Nc1ccccc1C(=O)Nc1ccccc1,0.3
10,CCOc1ccc(N2C(=O)/C(=C/c3ccc(C(=O)O)cc3)SC2=S)cc1,-1.6
11,CC1=C(C(=O)Nc2ccc(Cl)cc2)Sc2ccccc2N1,27.8
12,C=CCNC(=S)NNC(=O)CCn1c2ccccc2c2ccccc21,1.9
13,CC1CCN(CCCCOc2ccccc2Br)CC1,-6
14,CC1(C)OC2OC(COCc3ccccc3)C3OC(C)(C)OC3C2O1 (stereo unspecified),15.4
15,CN(C)c1ccc(NS(=O)(=O)c2ccc(Cl)cc2)cc1,10.5
16,COCCNC(=O)COc1ccccc1C,-4.3
17,Cc1onc(-c2ccccc2)c1C(=O)NCc1ccc(Cl)c(Cl)c1,-33.4
18,CC(Cc1ccccc1)C(=O)Nc1ccc(Cl)cc1 (stereo unspecified),6.5
19,CCOC(=O)c1cccc(NC(=O)/C=C/c2ccccc2Cl)c1,15.5
